# This is one part of the list. At the low end of the ranking the order means little.
# Molecular target: SIX1 homeodomain (reference allele) (UniProt Q15475)
# Experiment: universal protein binding microarray
# Details: Universal all-10-mer PBM (8x60K, AMADID 030236), 300 nM GST-tagged protein, Alexa Fluor 488 anti-GST; buffer, salt, pH and temperature not stated; high values mean tight binding; most listed sequences are background and not binding sites; double strand, one strand shown
row,Sequence,binding signal [E-score]
1,AGAGATTG,0.0402
2,GAGCCAGC,-0.0938
3,ACTTTTCT,-0.156
4,CACATAAC,-0.194
5,GGAACTTA,-0.0285
6,AGATATCT,0.385
7,TGACAACA,-0.0963
8,ACACACAG,0.0893
9,AAATTAAT,-0.0414
10,GGGTCTTA,0.0129
11,ATTAGGTG,0.138
12,GAGTGTAC,0.0815
13,ACAATTTG,-0.204
14,TACAATAA,0.000795
15,CTTCTTTC,-0.221
16,AGAACACG,0.0747
17,CACATGTC,-0.267
18,CGCGATAA,0.0708
19,CCGCCTGC,0.0208
20,ATATATTA,0.289
21,AGCCCGCA,-0.0406
22,CGGGTGAC,-0.0883
23,CCTCCCAG,-0.0499
24,GACTATAA,-0.187

row,Sequence,binding signal [E-score]
1,CCGCTGAC,-0.0648
2,ATCTAACA,0.125
3,CTTAGCCA,0.0299
4,AACTCTCG,-0.25
5,AGAGAGAT,0.204
6,CGTCGTGA,-0.0144
7,CATGAACG,-0.0294
8,ACGCATAT,0.233
9,CAGCGTAA,-0.0846
10,ATGGAAGC,-0.168
11,CAATGTCC,-0.131
12,AACCGGCA,-0.135
13,AGCAGTAG,-0.158
14,AGGCCGTG,-0.152
15,TACCTCGA,0.159
16,AGGACGGG,-0.137
17,ATTCAGCC,-0.114
18,ATTTTTCA,-0.0382
19,ATGCACCG,-0.152
20,AGATGGTG,0.149
21,CGCCGGCC,-0.0948
22,GAGCATTA,-0.135
23,AATTTGGC,-0.263
24,AGTCGAAA,-0.19

row,Sequence,binding signal [E-score]
1,ACTTTATC,0.0109
2,GTCCCAAC,-0.163
3,CAGGACGC,-0.0172
4,GTAACAAA,-0.231
5,GATGTGAC,-0.121
6,ACCTGCTG,0.0389
7,CCTACATA,0.0147
8,GCAGATAC,0.375
9,GGACAGAA,-0.177
10,CTGAACAC,0.0251
11,CATTTATC,-0.067
12,CCAGCAGC,-0.235
13,ATCATTTC,0.196
14,CTGTTACC,-0.12
15,CACCGTCC,0.0327
16,AAACGTTG,-0.173
17,ATGCCGTC,0.11
18,GGTTCGGA,0.0581
19,AGGGACAA,-0.171
20,ACCCAGCT,0.181
21,ACAATCTC,0.153
22,ACGAAACC,0.119
23,TAGACAGA,-0.0581
24,GCAACGAA,-0.0389

row,Sequence,binding signal [E-score]
1,GGTATGTA,0.213
2,CTGTGCGA,-0.118
3,CCACTCAG,-0.0232
4,GCCTGCAA,-0.108
5,AGCTTGGA,-0.228
6,GTCAGCTA,-0.069
7,ACTAGCGA,0.118
8,ACGGAGCG,-0.14
9,AATTGCGC,-0.0775
10,GAGAGTCA,-0.21
11,CTACAGGC,-0.0787
12,CTAGCCAC,-0.153
13,ATAGTACG,0.209
14,CCTGAGCG,-0.0498
15,CTGCGAAC,-0.291
16,CGTTGTGA,-0.0448
17,CACAAACC,-0.146
18,CTATCCGA,0.33
19,ATCTGTAC,0.221
20,CCATCTAA,0.0697
21,CTGGTCTA,0.201
22,TTCACCAA,-0.164
